Assay results: patent US8829203B2, “3′,6-substituted indirubins and their biological applications” (Centre National de la Recherche Scientifique (CNRS), priority 2008, dated 2014)

Test system: SH-SY5Y neuroblastoma cells
Experiment: cells
Conditions: Homo sapiens, 48 h, read-out: SH-SY5Y cell survival IC50, 48 h incubation, MTS reduction

`O=C1Nc2cc(Br)ccc2/C1=C1/Nc2ccccc2/C1=N\OCCN1CCCC1` [Cpd 7, (2′Z-3′E)-6-Bromoindirubin-3′-[O-(2-pyrrolidin-1-ylethyl)oxime]] and `CN1CCN(CCO/N=C2/C(=C3/C(=O)Nc4cc(Br)ccc43)Nc3ccccc32)CC1` [Cpd 12, (2′Z-3′E)-6-Bromoindirubin-3′-{O-[2-(4-methyl-piperazin-1-yl)ethyl]oxime}] are within 1.5-fold of each other in IC50: 5.5 µM for the first, 5.4 µM for the second.

Going from `O=C1Nc2cc(Br)ccc2/C1=C1/Nc2ccccc2/C1=N\OCC(O)CO` (stereo not drawn) [Cpd 3, (2′Z-3′E)-6-Bromoindirubin-3′-[O-(2,3-dihydroxypropyl)-oxime]] to `O=C1Nc2cc(Br)ccc2/C1=C1/Nc2ccccc2/C1=N\OCCO` [Cpd 2, (2′Z-3′E)-6-Bromoindirubin-3′-[O-(2-hydroxyethyl)-oxime]], the IC50 rises from 0.94 µM to > 100 µM.

`CN(CCON=C1C(=C2C(=O)Nc3cc(Br)ccc32)Nc2ccccc21)CC(O)CO` (stereo not drawn) [Cpd 21] and `CN(CCO/N=C1/C(=C2/C(=O)Nc3cc(Br)ccc32)Nc2ccccc21)CC(O)CO` (stereo not drawn) [Cpd 10, (2′Z-3′E)-6-Bromoindirubin-3′-(O-{2-[-methyl, N-(2,3-dihydroxypropyl)amino]ethyl}oxime]] are within 1.5-fold of each other in IC50: 6 µM for the first, 5.8 µM for the second.

First: CCN(CC)CCO/N=C1/C(=C2/C(=O)Nc3cc(Br)ccc32)Nc2ccccc21 [Cpd 6, (2′Z-3′E)-6-Bromoindirubin-3′-[O-(2-diethylaminoethyl)-oxime]]
Second: O=C1Nc2cc(Br)ccc2/C1=C1/Nc2ccccc2/C1=N\OCCBr [Cpd 1, (2′Z-3′E)-6-Bromoindirubin-3-[O-(2-bromoethyl)-oxime]]
The IC50 of the first is lower: 78 µM for the first, > 100 µM for the second.

`CCN(CC)C(=O)O/N=C1/C(=C2/C(=O)Nc3cc(Br)ccc32)Nc2ccccc21` [Cpd 4, (2′Z-3′E)-6-Bromoindirubin-3′-[O-(N,N-diethylcarbamyl)-oxime]] was tested, and the IC50 was > 100 µM.

Test system: SH-SY5Y neuroblastoma cells
Experiment: not given
Conditions: read-out: SH-SY5Y cell survival IC50; 48 h incubation, MTS reduction

Going from `CN1CCN(CCO/N=C2/C(=C3/C(=O)Nc4cc(Br)ccc43)Nc3ccccc32)CC1` [Cpd 23, (2′Z-3′E)-6-Bromoindirubin-3′-{O-[2-(4-methylpiperazin-1-yl)ethyl]oxime}Dihydrochloride] to `COCCN1CCN(CCO/N=C2/C(=C3/C(=O)Nc4cc(Br)ccc43)Nc3ccccc32)CC1` [Cpd 25], the IC50 rises from 5.4 µM to > 100 µM. The first is the more potent here.

`O=C1Nc2cc(Br)ccc2/C1=C1/Nc2ccccc2/C1=N\OCCN1CCCC1` [Cpd 18, (2′Z-3′)-6-Bromoindirubin-3′-[O-(2-pyrrolidin-1-ylethyl)oxime]Hydrochloride] and `O=C1Nc2cc(Br)ccc2/C1=C1/Nc2ccccc2/C1=N\OCCN1CCNCC1` [Cpd 22, (2′Z-3′E)-6-Bromoindirubin-3′-[O-(2-piperazine-1-ylethyl)oxime]Dihydrochloride] are within 1.5-fold of each other in IC50: 4.2 µM for the first, 5.9 µM for the second.

First: O=C1Nc2cc(Br)ccc2/C1=C1/Nc2ccccc2/C1=N\OCCN1CCN(CCOCCO)CC1 [Cpd 15, (2′Z-3′E)-6-Bromoindirubin-3′-[O-(2-{4-[2-(2-hydroxyethoxy)-ethyl]piperazin-1-yl}ethyl)oxime]]
Second: CCN(CC)CCO/N=C1/C(=C2/C(=O)Nc3cc(Br)ccc32)Nc2ccccc21 [Cpd 17, (2′Z-3′E)-6-Bromoindirubin-3′-[O-(2-diethylaminoethyl)oxime]Hydrochloride]
The IC50 of the first is lower: 94.4 µM for the first, > 100 µM for the second.

Where a name gives a salt, the structure may show the parent alone.
